From paper PMC4336329 (PLoS ONE, 2015)
The campaign covered roughly 310,000 compounds. About 14,000 (4.5%) showed an effect of 50% or more. Effects have a minus sign here. The list shows a part of the results.

Target: human ether-à-go-go-related gene (hERG) potassium channel (human, UniProt Q12809)
Experiment: primary screen, population patch clamp on CHO cells stably expressing hERG
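Also: peak tail current of the secondary pulse compared with the same well before compound.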

Sequence of human ether-à-go-go-related gene (hERG) potassium channel (Q12809 whole entry, looked up): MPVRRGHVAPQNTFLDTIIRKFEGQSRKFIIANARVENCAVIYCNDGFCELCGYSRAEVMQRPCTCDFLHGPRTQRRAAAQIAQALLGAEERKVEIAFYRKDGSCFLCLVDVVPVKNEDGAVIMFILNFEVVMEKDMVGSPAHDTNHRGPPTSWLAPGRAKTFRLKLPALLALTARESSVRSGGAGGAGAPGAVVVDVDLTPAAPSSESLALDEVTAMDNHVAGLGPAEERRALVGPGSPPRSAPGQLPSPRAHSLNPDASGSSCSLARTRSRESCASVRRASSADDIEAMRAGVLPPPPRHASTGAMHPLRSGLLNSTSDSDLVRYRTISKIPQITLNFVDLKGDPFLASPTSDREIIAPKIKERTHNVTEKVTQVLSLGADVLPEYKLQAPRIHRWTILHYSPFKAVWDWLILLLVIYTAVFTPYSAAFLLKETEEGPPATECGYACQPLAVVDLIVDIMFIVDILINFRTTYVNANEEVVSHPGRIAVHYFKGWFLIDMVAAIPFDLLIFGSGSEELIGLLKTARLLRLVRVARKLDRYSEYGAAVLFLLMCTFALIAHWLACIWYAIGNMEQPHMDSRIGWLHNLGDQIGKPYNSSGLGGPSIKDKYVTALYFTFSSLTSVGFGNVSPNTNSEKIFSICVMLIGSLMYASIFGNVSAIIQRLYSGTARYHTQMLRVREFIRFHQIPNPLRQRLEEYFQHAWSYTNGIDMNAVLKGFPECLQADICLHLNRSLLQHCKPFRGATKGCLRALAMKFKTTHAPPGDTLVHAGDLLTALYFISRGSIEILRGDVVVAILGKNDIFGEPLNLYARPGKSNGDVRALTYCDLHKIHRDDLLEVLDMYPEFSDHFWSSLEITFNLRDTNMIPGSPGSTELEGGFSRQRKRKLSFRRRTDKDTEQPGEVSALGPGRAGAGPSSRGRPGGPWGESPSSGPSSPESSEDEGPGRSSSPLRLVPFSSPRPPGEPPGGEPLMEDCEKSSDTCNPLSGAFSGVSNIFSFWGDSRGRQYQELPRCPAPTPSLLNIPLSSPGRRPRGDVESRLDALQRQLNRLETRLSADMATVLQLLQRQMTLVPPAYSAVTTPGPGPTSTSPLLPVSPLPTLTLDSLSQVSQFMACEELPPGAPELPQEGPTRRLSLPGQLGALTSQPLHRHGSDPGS

With Nn1c(SCC(=O)N2CCOCC2)nnc1-c1ccco1 as the molecule, how does the “hERG current change (%, negative = inhibition) at 10uM” value read?
Its value is 9.77%.

For O=C(CN1C(=O)c2cccc3cccc1c23)Nc1ccc(S(=O)(=O)Nc2nccs2)cc1, which “hERG current change (%, negative = inhibition) at 10uM” value is on record?
The value was 0.913%.

Cc1ccc(S(=O)(=O)N2CCCC2)cc1C(=O)NCC(C)(C)N1CCOCC1 was tested. Which “hERG current change (%, negative = inhibition) at 10uM” value did it give?
The value was 16.5%.

How did the “hERG current change (%, negative = inhibition) at 10uM” value turn out when O=C(NNC(=O)c1ccccc1[N+](=O)[O-])c1csc(N2CCOCC2)n1 was run?
Its value is 4.44%.

For CCc1nnc(NC(=O)Cc2ccc(Br)cc2)s1, which “hERG current change (%, negative = inhibition) at 10uM” value is on record?
The value was 12.4%.

O=C1C=C(O)CC(c2cccs2)C1 (centres unmarked) was tested. Which “hERG current change (%, negative = inhibition) at 10uM” value did it give?
Its value is 21.4%.

Which “hERG current change (%, negative = inhibition) at 10uM” value does the source give for COc1ccc(CN(Cc2cc3cc(OC)c(OC)cc3[nH]c2=O)C(=O)NC2CCCCC2)cc1 here?
Its value is 7.13%.

With CC1CN(c2ncc(/C=N/NC(=O)c3ccccc3O)s2)CC(C)O1 (centres unmarked) as the molecule, how does the “hERG current change (%, negative = inhibition) at 10uM” value read?
Its value is 8.4%.

Which “hERG current change (%, negative = inhibition) at 10uM” value does the source give for COC(=O)c1scc(C)c1-n1ccc(C(=O)C(=O)N(C)C)c1 here?
The value was 5.31%.

How did the “hERG current change (%, negative = inhibition) at 10uM” value turn out when c1csc(-c2nn[nH]n2)c1 was run?
Its value is 7.73%.

How did the “hERG current change (%, negative = inhibition) at 10uM” value turn out when O=c1[nH]c2ccc(Cl)cc2c(-c2ccccc2)c1CN1CCOCC1 was run?
Its value is -14.7%.

Which “hERG current change (%, negative = inhibition) at 10uM” value does the source give for COc1ccccc1NC(=S)N(Cc1ccco1)Cc1cc2cccc(C)c2[nH]c1=O here?
The value was -3.84%.

For Cc1ncoc1C(=O)N1CCCC(N2CCN(c3ccccc3F)CC2)C1 (centres unmarked), which “hERG current change (%, negative = inhibition) at 10uM” value is on record?
Its value is 0.468%.

How did the “hERG current change (%, negative = inhibition) at 10uM” value turn out when CCOc1cccc(CN2CCCC(N3CCN(c4cccc(Cl)c4)CC3)C2)c1O (centres unmarked) was run?
The value was -58.7%.

How did the “hERG current change (%, negative = inhibition) at 10uM” value turn out when COC(=O)c1ccc(NC(=S)Nc2ccccc2)cc1 was run?
Its value is 2.01%.

For CCOC(=O)C1=C(CS(=O)(=O)c2ccccc2)NC(=O)NC1c1ccc(O)c(OC)c1 (centres unmarked), which “hERG current change (%, negative = inhibition) at 10uM” value is on record?
The value was 14.9%.

With O=C1c2ccccc2-c2cccc(C(=O)N3CCN(C(=O)c4ccccc4)CC3)c21 as the molecule, how does the “hERG current change (%, negative = inhibition) at 10uM” value read?
Its value is -40.4%.

For CCCN(CC(=O)Nc1ccccc1C)C(=O)c1ccc2c(c1)S(=O)(=O)N=C1CCCCCN12, which “hERG current change (%, negative = inhibition) at 10uM” value is on record?
The value was 8.62%.

Which “hERG current change (%, negative = inhibition) at 10uM” value does the source give for CCC(C(=O)N(C(C)C)C(C)C)c1ccccc1 (centres unmarked) here?
Its value is 7.45%.

COc1ccc(C(C)=O)cc1CN1CC=C(c2ccccc2)CC1 was tested. Which “hERG current change (%, negative = inhibition) at 10uM” value did it give?
Its value is -17%.

Cc1cc(C(=O)Nc2c(C)n(C)n(-c3ccccc3)c2=O)on1 was tested. Which “hERG current change (%, negative = inhibition) at 10uM” value did it give?
Its value is 11.6%.

How did the “hERG current change (%, negative = inhibition) at 10uM” value turn out when Cc1nc2c3cc(F)ccc3n(Cc3ccccc3)c2s1 was run?
The value was 4.24%.

COc1cc2c(cc1OC)C(c1ccc(C)o1)CC(=O)N2 (centres unmarked) was tested. Which “hERG current change (%, negative = inhibition) at 10uM” value did it give?
The value was -4.15%.

O=C(COC(=O)c1cnccn1)Nc1cccc2ccccc12 was tested. Which “hERG current change (%, negative = inhibition) at 10uM” value did it give?
Its value is -14.6%.

CC(C(=O)Nc1sc2c(c1C#N)CCCCC2)N1C(=O)c2ccccc2C1=O (centres unmarked) was tested. Which “hERG current change (%, negative = inhibition) at 10uM” value did it give?
The value was -14.1%.

Which “hERG current change (%, negative = inhibition) at 10uM” value does the source give for CCOc1ccccc1CN1CCN(Cc2[nH]c3ccccc3c2C)CC1CCO (centres unmarked) here?
The value was -62.3%.

How did the “hERG current change (%, negative = inhibition) at 10uM” value turn out when C=CCNC(=O)COc1ccc(Oc2ccccc2)cc1 was run?
The value was -47.5%.

Which “hERG current change (%, negative = inhibition) at 10uM” value does the source give for Cc1cccc(NC(=O)CCCNC(=O)c2ccc(Cl)cc2)n1 here?
The value was 11.8%.

How did the “hERG current change (%, negative = inhibition) at 10uM” value turn out when O=C1C=C(NC2CCCC2)CC(c2ccccc2)C1 (centres unmarked) was run?
The value was -3.55%.

Which “hERG current change (%, negative = inhibition) at 10uM” value does the source give for CC(=O)NC(CC(=O)N(Cc1ccccc1)c1cccc(C)c1)c1ccccc1 (centres unmarked) here?
The value was -14.2%.

How did the “hERG current change (%, negative = inhibition) at 10uM” value turn out when COc1cc2c3nc4n(c(=O)c3n(CC(=O)NCC3CCCO3)c2cc1OC)CCS4 (centres unmarked) was run?
Its value is 19.2%.

How did the “hERG current change (%, negative = inhibition) at 10uM” value turn out when COc1ccc(C(CNC(=O)COc2ccccc2OC)N2CCCCC2)cc1 (centres unmarked) was run?
The value was -19.5%.

For Cc1cccc(NC(=O)c2cc(-c3c(C)cc(C)cc3O)n[nH]2)c1, which “hERG current change (%, negative = inhibition) at 10uM” value is on record?
The value was 19.6%.

With CC(=O)N/N=C/c1cc(C(C)C)cc(/C=N/NC(C)=O)c1O as the molecule, how does the “hERG current change (%, negative = inhibition) at 10uM” value read?
Its value is 22.3%.

With CCN1CCN(C(=O)c2cc3cc4ccc(OC)cc4nc3s2)CC1 as the molecule, how does the “hERG current change (%, negative = inhibition) at 10uM” value read?
The value was -23.2%.

For COc1ccc(NC(C)C(=O)N/N=C/c2ccccc2OCc2ccc(Br)cc2)cc1 (centres unmarked), which “hERG current change (%, negative = inhibition) at 10uM” value is on record?
The value was 2.49%.

For Cc1ccc(C#N)c(SCc2ccccc2[N+](=O)[O-])n1, which “hERG current change (%, negative = inhibition) at 10uM” value is on record?
Its value is 2.72%.

For CCOc1ccc(S(=O)(=O)N(C)CC(=O)N2CCCC2)cc1, which “hERG current change (%, negative = inhibition) at 10uM” value is on record?
Its value is 12.3%.

For NC(=O)C1(N2CCCCC2)CCN(C(=O)c2cccn3c(=O)c4cc(Cl)ccc4nc23)CC1, which “hERG current change (%, negative = inhibition) at 10uM” value is on record?
The value was -30.1%.

With CCC(CC)NC(=O)c1ccc(NS(=O)(=O)c2ccc3[nH]c(=O)[nH]c3c2)cc1 as the molecule, how does the “hERG current change (%, negative = inhibition) at 10uM” value read?
The value was 12.3%.

How did the “hERG current change (%, negative = inhibition) at 10uM” value turn out when CC1=C(C)CC(C(=O)NNC(=O)c2csc(C)c2C)C(C(=O)O)C1 (centres unmarked) was run?
The value was 11.5%.

Which “hERG current change (%, negative = inhibition) at 10uM” value does the source give for O=C(CC1C(=O)NCCN1CC1CCCCC1)NCc1cc(F)ccc1F (centres unmarked) here?
Its value is 1.77%.

Which “hERG current change (%, negative = inhibition) at 10uM” value does the source give for CCOc1ccc(Br)cc1C(=O)N/N=C/c1ccccn1 here?
Its value is -40.8%.

With Cc1cccc(NC(=O)c2ccc3nc(N4CCOCC4)sc3c2)c1C as the molecule, how does the “hERG current change (%, negative = inhibition) at 10uM” value read?
Its value is -34.7%.

Which “hERG current change (%, negative = inhibition) at 10uM” value does the source give for O=C(NCc1nnc(SCC(=O)N2CCN(c3ccccc3)CC2)o1)c1c(F)cccc1F here?
The value was 5.94%.

For O=C(C1=NN[C@@H]2C(=O)N(c3ccccc3C(F)(F)F)C(=O)[C@H]12)C(c1ccccc1)c1ccccc1, which “hERG current change (%, negative = inhibition) at 10uM” value is on record?
Its value is 1%.

For CCNc1nc(Cl)nc(N(NC(C)=O)C(C)CC)n1 (centres unmarked), which “hERG current change (%, negative = inhibition) at 10uM” value is on record?
The value was 14.9%.

For COc1ccc(NC(=O)Cc2c(C(=O)O)n(C)c3ccccc23)cc1OC, which “hERG current change (%, negative = inhibition) at 10uM” value is on record?
Its value is 15%.

How did the “hERG current change (%, negative = inhibition) at 10uM” value turn out when COC(=O)[C@@]12CCCCN1[C@H](c1ccc(-c3ccc(OC)cc3)cc1)[C@H]1C(=O)N(C)C(=O)[C@H]12.O=C(O)C(F)(F)F was run?
The value was 7.9%.

Which “hERG current change (%, negative = inhibition) at 10uM” value does the source give for O=C(Nc1cccc2ccccc12)c1ccc([N+](=O)[O-])cc1 here?
The value was 0.571%.

CCn1nc(NC(=O)C(C)(C)C)c2cc3cccc(C)c3nc21 was tested. Which “hERG current change (%, negative = inhibition) at 10uM” value did it give?
Its value is 4.7%.

With CCN(CC)CCn1c2c(c(SCC(=O)Nc3nc4ccccc4s3)nc1=O)CCCC2 as the molecule, how does the “hERG current change (%, negative = inhibition) at 10uM” value read?
The value was -60.2%.

How did the “hERG current change (%, negative = inhibition) at 10uM” value turn out when O=C(c1cccc([N+](=O)[O-])c1)N1CCN(S(=O)(=O)N2CCCCC2)CC1 was run?
Its value is -15.2%.

For Cc1cc(C)cc(N=C(NO)c2cccc([N+](=O)[O-])c2)c1, which “hERG current change (%, negative = inhibition) at 10uM” value is on record?
Its value is 4.65%.

For CC(C)c1ccc(NC(=O)c2ccc3snnc3c2)cc1, which “hERG current change (%, negative = inhibition) at 10uM” value is on record?
The value was -0.648%.

How did the “hERG current change (%, negative = inhibition) at 10uM” value turn out when Cn1cccc1Cc1nnc(SCC(=O)Nc2nc3ccccc3s2)n1CCc1ccccc1 was run?
The value was 8.09%.
